Laboratory results published in publication PMC4336329 (PLoS ONE, 2015).
Out of some 310,000 compounds screened, about 14,000 (4.5%) showed an effect of 50% or more. Effects have a minus sign here. The list shows a part of the results.

These molecules were tested against human ether-à-go-go-related gene (hERG) potassium channel (human, UniProt Q12809) (assay: primary screen, population patch clamp on CHO cells stably expressing hERG).
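Further: peak tail current of the secondary pulse compared with the same well before compound.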

Chain of human ether-à-go-go-related gene (hERG) potassium channel (Q12809 whole entry, looked up): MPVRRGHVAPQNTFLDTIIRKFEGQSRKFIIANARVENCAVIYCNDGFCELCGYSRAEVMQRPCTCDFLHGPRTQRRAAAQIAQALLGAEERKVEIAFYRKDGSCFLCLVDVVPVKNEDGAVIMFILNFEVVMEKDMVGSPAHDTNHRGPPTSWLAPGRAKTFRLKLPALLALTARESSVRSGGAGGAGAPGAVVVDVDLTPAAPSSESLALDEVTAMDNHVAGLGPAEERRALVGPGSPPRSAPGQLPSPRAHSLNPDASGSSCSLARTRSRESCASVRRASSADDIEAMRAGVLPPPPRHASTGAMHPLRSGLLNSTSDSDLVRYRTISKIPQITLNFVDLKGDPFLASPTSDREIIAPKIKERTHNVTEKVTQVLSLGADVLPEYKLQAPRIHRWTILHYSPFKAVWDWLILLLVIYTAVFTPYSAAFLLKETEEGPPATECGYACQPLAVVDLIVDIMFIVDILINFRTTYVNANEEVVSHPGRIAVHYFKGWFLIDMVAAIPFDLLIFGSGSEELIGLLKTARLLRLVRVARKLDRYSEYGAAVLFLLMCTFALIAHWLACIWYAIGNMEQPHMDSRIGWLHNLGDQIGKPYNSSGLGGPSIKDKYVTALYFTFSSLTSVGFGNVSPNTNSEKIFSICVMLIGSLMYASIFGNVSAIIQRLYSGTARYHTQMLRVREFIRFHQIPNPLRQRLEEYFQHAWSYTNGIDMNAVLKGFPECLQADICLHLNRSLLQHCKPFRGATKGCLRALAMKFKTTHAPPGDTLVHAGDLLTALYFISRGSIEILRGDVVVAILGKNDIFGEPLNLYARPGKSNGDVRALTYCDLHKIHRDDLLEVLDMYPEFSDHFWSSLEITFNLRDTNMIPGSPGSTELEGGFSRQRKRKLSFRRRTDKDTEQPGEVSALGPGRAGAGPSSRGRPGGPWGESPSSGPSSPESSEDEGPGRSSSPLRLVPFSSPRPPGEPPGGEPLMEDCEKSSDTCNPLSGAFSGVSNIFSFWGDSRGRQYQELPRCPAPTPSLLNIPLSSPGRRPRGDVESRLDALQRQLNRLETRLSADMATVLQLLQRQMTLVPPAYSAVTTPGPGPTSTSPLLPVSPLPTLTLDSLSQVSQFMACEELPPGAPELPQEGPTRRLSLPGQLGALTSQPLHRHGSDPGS

Row | Compound | hERG current change (%, negative = inhibition) at 10uM [%]
1 | CCCCc1c(O)nc(SCC(=O)NC(C)(C)C)n(-c2ccccc2C)c1=O | 13.8
2 | CCSc1ccccc1C(=O)Nc1cccnc1 | -5.83
3 | Cc1cc(OCc2cc(C(=O)N3CCN(C)C(=O)[C@@H]3C)no2)cc(C)c1Cl | -36.2
4 | CC1(C)Nc2ccccc2N(Cc2ccc([N+](=O)[O-])cc2)C1=O | -49.7
5 | Cc1ccc(-c2nn(CC(=O)NC(C)c3ccccc3)c(=O)c3ccccc23)cc1 (stereo not drawn) | 12.2
6 | O=C(O)C(=O)O.OCCNCCCCOc1ccc(OCc2ccccc2)cc1 | -32.1
7 | COc1cc(/C=C(/C#N)C(=O)Nc2ccc(Cl)cc2)ccc1Oc1nc(Cl)ncc1F | 13.3
8 | COc1ccc(NC(=O)Nc2c(C)n(C)n(-c3ccccc3)c2=O)cc1 | -18.6
9 | Cc1c(C(C)C)c(=O)n(-c2ccc(S(=O)(=O)NC3CCCCC3)cc2)n1C | 13.6
10 | C/C(=N\Nc1nc(C(=O)O)cs1)c1ccccc1 | 23.2
11 | CCn1cc(/C=C(\NC(=O)c2ccc(OC)c(OC)c2)C(=O)N2CCOCC2)c2ccccc21 | -1.09
12 | COc1nccnc1NS(=O)(=O)c1ccc(NC(=O)c2ccc(F)cc2)cc1 | 8.46
13 | C[C@H](NC(=O)C1CCN(S(=O)(=O)c2ccccc2)CC1)C(=O)NCc1cccc(Cl)c1 | 9.42
14 | O=C(NCCCCNC(=O)c1ccc(Br)cc1)c1ccc(Br)cc1 | 18.3
15 | COc1ccc(CCNS(=O)(=O)c2c(N)n(C)c(=O)n(C)c2=O)cc1OC | 13.9
16 | COc1ccc(C(=O)Nc2ccnn2C2CCN(C3CCC3)CC2)cc1 | 20.7
17 | Cc1nn(Cc2ccccc2)c(C)c1N | 0.873
18 | COc1ccc(/C=C/C(=O)Nc2ccc(NC(C)=O)cc2)cc1S(=O)(=O)N1CCOCC1 | 1.65
19 | CCOc1ccc(OCCC(=O)OCC(=O)Nc2ccc3c(c2)OCO3)cc1 | 8.47
20 | COc1ccccc1-n1c(=O)oc2ccc(Cl)cc2c1=O | -7.54
21 | Cc1ccc(NC(=O)Nc2nnc(-c3ccncc3)s2)cc1C | 21.7
22 | CN1C(=O)C(C)(C)c2cc(S(=O)(=O)N3CCCC(C(=O)NCc4ccccc4Cl)C3)ccc21 (stereo not drawn) | 2.18
23 | O=P(CCl)(Nc1ccccc1)C(Cl)(Cl)Cl (stereo not drawn) | 6.97
24 | CS(=O)(=O)N(CC(=O)Nc1ccccc1C(=O)N1CCOCC1)c1ccc(Cl)cc1 | -1.59
25 | COc1ccc(NC(=O)c2cc(S(=O)(=O)N3CCc4ccccc43)cn2C)cc1 | 1.45
26 | O=C(N/N=C/C=C/c1ccco1)/C(=C/c1ccccc1)NC(=O)c1ccccc1 | -47
27 | CCN(C(=O)C1CCN(S(=O)(=O)c2ccc3c(c2)oc(=O)n3C)CC1)c1cccc(C)c1 | 0.447

Row | Compound | hERG current change (%, negative = inhibition) at 10uM [%]
28 | COc1ccc(-c2csc(NC(=S)NC(=O)c3ccccc3)n2)cc1Br | 12
29 | O=C(COc1ccc([N+](=O)[O-])cc1)Nc1ccc(NC(=O)c2ccccc2)cc1 | 19
30 | Nc1[nH]c(=O)[nH]c(=O)c1N=Nc1cccc(Cl)c1 | -26.7
31 | CCc1cc(C(=O)c2ccc(Br)cc2)c(NC(=O)CN(CC)CC)s1 | -5.19
32 | COc1ccc(CCn2c(Br)nc3c2c(=O)[nH]c(=O)n3C)cc1 | -3.69
33 | CC1=NN(C(=O)COc2ccccc2C)C(O)(c2ccc(Cl)cc2)C1 (stereo not drawn) | 4.98
34 | COc1ccccc1C(=O)Nc1ccnn1C1CCN(CCC(C)c2ccc(C)o2)CC1 (stereo not drawn) | -80.8
35 | O=C(O)C1CSC2(c3ccc4c(c3)OCCO4)CCC(=O)N12 (stereo not drawn) | 11
36 | COc1ccccc1CCNC(=O)c1cc(COc2cccc(C(F)(F)F)c2)on1 | 15.4
37 | Cc1onc(-c2c(F)cccc2Cl)c1C(=O)OCC(=O)c1c(N)n(C)c(=O)n(C)c1=O | -47.3
38 | CC(=O)N1CC2(c3ccccc3)CN(C(C)=O)CC(c3ccccc3)(C1)C2=O | 3.21
39 | CC1CN(CCC(=O)Nc2ccc3c(c2)OCO3)CC(C)O1.Cl (stereo not drawn) | 1.66
40 | C=CCN1C(=O)CN=C1Nc1cc(C)cc(C)c1.Cl | -1.52
41 | CCOC(=O)C1=C(C)N=C(/N=C/N(C)C)SC1c1ccccc1 (stereo not drawn) | 7.88
42 | O=C(c1cccs1)N1CCN(c2nc3c(F)cc(F)cc3s2)CC1 | -50.1
43 | C=CCn1c(O)c(C(C)=NCCC(c2ccccc2)c2ccccc2)c(=O)[nH]c1=O | 2.45
44 | N=C1C(=O)OCC1c1ccccc1NC(=O)Nc1ccccc1 (stereo not drawn) | 11.9
45 | Cc1ccc(C(=O)NC(=S)Nc2ccccc2N2CCOCC2)cc1C | -5.46
46 | CCc1n[nH]c(=S)n1/N=C/c1c(C)nn(-c2ccccc2)c1Cl | 21.4
47 | C=CCNC(=O)CSc1nc2sc(C)c(C)c2c(=O)[nH]1 | 20.1
48 | C/C(=N\Nc1ccc([N+](=O)[O-])cc1)c1ccc(-n2nncc2C(C)(C)C)cc1 | 4.92
49 | CC(=O)OCC1=C(C(=O)O)N2C(=O)C(NC(=O)CCn3nc(C)c(Cl)c3C)C2SC1 (stereo not drawn) | 25.2
50 | O=C(CSc1nnc(-c2ccco2)o1)Nc1ccccc1Cl | 26.2
51 | Cn1c(=O)[nH]c(NCCc2ccc(O)cc2)c([N+](=O)[O-])c1=O | 14.7
52 | CC(=O)c1ccc(NC(=O)C2CCCN(c3ncnc4c3nc3n4CCCCC3)C2)cc1 (stereo not drawn) | -24.1
53 | O=C(Nc1ccc2ccccc2c1)c1onc2c1CCCC2 | 12.8
54 | O=C(NC1CCCCCC1)C1CCN(C(=O)c2ccc(Cl)cc2)CC1 | -20.4
